This is an account of results in the supplement of paper PMC9446081.

Screen size: about 39,000 compounds; about 220 (0.56%) showed activity. The list shows a part of the results.
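Also: static incubation at 37 °C against the wild-type strain, values averaged over two biological replicates.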

This experiment deals with Escherichia coli K-12 BW25113. Briefly: relative growth (OD600 normalised to plate interquartile mean) (fraction); higher = less growth inhibition, active = 0.2 or less. The conditions noted are these: 50 µM; LB; incubation time: overnight (16-24 h).
For the compound `CO[C@H](CN(C)S(=O)(=O)c1cccc(Cl)c1)[C@@H](C)CN([C@H](C)CO)S(=O)(=O)c1ccc(Cl)cc1`, the relative growth is inactive: 1.03.

On to `C[C@@H]1CN([C@@H](C)CO)C(=O)c2cc(-c3cccc(C(=O)N(C)C)c3)cnc2O[C@H]1CN(C)C(=O)Cc1ccccn1`, for which the relative growth is inactive: 0.986.

`C[C@H]1CN([C@@H](C)CO)C(=O)CCCn2nncc2CO[C@H]1CN(C)S(=O)(=O)c1ccc(Oc2ccccc2)nc1`: the relative growth is inactive: 1.01.

On to `CCC(=O)C12CC3CC(CC(C3)C1)C2`, for which the relative growth was inactive: 0.981.

Turning to `C[C@@H]1CN([C@H](C)CO)C(=O)c2cc(NC(=O)NC3CCCCC3)ccc2O[C@@H](C)CCCCO[C@@H]1CN(C)Cc1ccc(C(=O)O)cc1`, the relative growth was inactive: 1.01.

For the compound `Cc1noc(C)c1S(=O)(=O)Nc1ccc2c(c1)C(=O)N([C@@H](C)CO)C[C@H](C)[C@@H](CN(C)Cc1ccccc1)OCCCC[C@H](C)O2`, the relative growth was inactive: 0.983.

Turning to `C[C@H]1CN([C@@H](C)CO)C(=O)Cc2cc(NS(C)(=O)=O)ccc2O[C@H]1CN(C)Cc1ccc(C(F)(F)F)cc1`, the relative growth is inactive: 0.971.

For `C[C@H]1CN([C@@H](C)CO)C(=O)c2cccc(NC(=O)Nc3ccc(C(F)(F)F)cc3)c2O[C@@H]1CN(C)Cc1ccc(C(=O)Nc2ccccc2N)cc1`, the relative growth is inactive: 0.984.

As to `Cc1ccc(S(=O)(=O)Nc2ccc3c(c2)C(=O)N([C@H](C)CO)C[C@H](C)[C@H](CN(C)C(=O)Nc2cccc4ccccc24)OCCCC[C@H](C)O3)cc1`, the relative growth was inactive: 0.988.

`COc1ccc2c3c(n(c2c1)C)[C@@H](CO)N(Cc1cc(cc(c1)OC)OC)C[C@]13CCN(CC1)C(=O)Nc1cccc(c1)F`: the relative growth was inactive: 1.03.

As for `C[C@H](CO)N1C[C@H](C)[C@H](CN(C)C(=O)Nc2cccc(C(F)(F)F)c2)OCc2ccccc2-c2ccccc2C1=O`, the relative growth was inactive: 0.984.

Consider `N[C@H]1CCOC2(CCCC2)C1`, for which the relative growth was inactive: 0.906.

Consider `C=C1CCC2C(C)(CO)C(O)CCC2(C)C1CC=C1C(=O)OCC1O` (configuration not stated), for which the relative growth was inactive: 0.963.

Consider `C[C@H](CO)N1C[C@H](C)[C@H](CN(C)S(C)(=O)=O)Oc2ncc(-c3cccc(C(F)(F)F)c3)cc2C1=O`, for which the relative growth is inactive: 1.02.

Consider `O=c1c(O)cc([C@H]2Oc3cc(O)cc(O)c3C[C@H]2O)c2cc([C@H]3Oc4cc(O)cc(O)c4C[C@H]3O)cc(O)c(O)c1-2`, for which the relative growth was inactive: 0.968.

`C[C@@H]1CCCCO[C@@H](CN(C)Cc2ccc(Cl)c(Cl)c2)[C@@H](C)CN([C@H](C)CO)C(=O)c2cc(NS(=O)(=O)c3cccs3)ccc2O1`: the relative growth was inactive: 1.02.

Turning to `CC/C=C\C/C=C\C/C=C\CCCCCCCC(=O)O`, the relative growth is inactive: 0.995.

Take `Cc1ccc(S(=O)(=O)Nc2ccc3c(c2)CC(=O)N([C@H](C)CO)C[C@H](C)[C@H](CN(C)Cc2ccc(-c4ccccc4)cc2)O3)cc1`: the relative growth was inactive: 1.02.

For `CC(C)C(N)C(=O)OCCOCn1cnc2c(=O)[nH]c(N)nc21.Cl` (configuration not stated), the relative growth is inactive: 0.942.

As for `COc1ccc(NC(=O)N(C)C[C@H]2Oc3ccc(NC(=O)Nc4ccc(C(F)(F)F)cc4)cc3CC(=O)N([C@H](C)CO)C[C@@H]2C)cc1`, the relative growth is inactive: 1.01.

Consider `C[C@@H]1CCCCO[C@@H](CN(C)S(=O)(=O)c2ccc(Cl)cc2)[C@H](C)CN([C@@H](C)CO)C(=O)c2cc(NC(=O)C3CCCCC3)ccc2O1`, for which the relative growth is inactive: 0.809.

For `COc1cccc(S(=O)(=O)N[C@@H]2CC[C@H](CCn3cc(-c4ccccc4OC)nn3)O[C@@H]2CO)c1`, the relative growth is inactive: 1.02.

Turning to `C[C@H](CO)N1C[C@H](C)[C@@H](CN(C)S(=O)(=O)c2cccs2)Oc2ccc(NS(=O)(=O)c3ccc(F)cc3)cc2C1=O`, the relative growth was inactive: 0.979.

In the case of `C[C@H](CO)N1C[C@H](C)[C@@H](CN(C)Cc2ccc(Cl)c(Cl)c2)Oc2c(NS(=O)(=O)c3cccs3)cccc2C1=O`, the relative growth was inactive: 0.905.

Take `C[C@@H]1CN([C@@H](C)CO)C(=O)Cc2cc(NC(=O)Nc3ccc(C(F)(F)F)cc3)ccc2O[C@@H]1CN(C)Cc1ccc2c(c1)OCO2`: the relative growth is inactive: 1.01.

Turning to `C[C@@H]1CN([C@H](C)CO)C(=O)c2cc(NC(=O)C3CCCCC3)ccc2O[C@@H](C)CCCCO[C@H]1CN(C)C(=O)Nc1ccc2c(c1)OCO2`, the relative growth is inactive: 1.

`CC(=O)OC1CC(OC(C)=O)C2(C)C(CC(OC(C)=O)C3(C)C2CCC2(C)C(c4ccoc4)OC(=O)C4OC423)C1(C)C` (configuration not stated): the relative growth was inactive: 1.15.

Turning to `C[C@@H]1CN([C@@H](C)CO)C(=O)CCCn2nncc2CO[C@H]1CN(C)S(=O)(=O)c1ccc(-c2ccccc2)cc1`, the relative growth was inactive: 1.01.

For `O=C(C[C@H]1C[C@H]2c3cc(NC(=O)Cc4ccncc4)ccc3O[C@H]2[C@@H](CO)O1)NCCN1CCCCC1`, the relative growth is inactive: 0.99.

On to `C[C@@H]1CN([C@@H](C)CO)C(=O)Cc2cc(NC(=O)Nc3ccc(C(F)(F)F)cc3)ccc2O[C@@H]1CN(C)C(=O)Nc1ccc2c(c1)OCO2`, for which the relative growth is inactive: 1.03.

Turning to `Cc1ccc(S(=O)(=O)Nc2ccc3c(c2)C(=O)N([C@@H](C)CO)C[C@@H](C)[C@@H](CN(C)C(=O)Nc2cccc4ccccc24)OCCCC[C@H](C)O3)cc1`, the relative growth is inactive: 1.02.

With `COc1ccc(C#Cc2ccc3c(c2)O[C@H](CN(C)C(=O)c2ccccn2)[C@H](C)CN([C@@H](C)CO)S3(=O)=O)cc1`, the relative growth was inactive: 1.

For the compound `CC(C)CS(=O)(=O)N1C[C@H]2C[C@H](C(=O)N3CCOCC3)[C@@H](C1)O2`, the relative growth was inactive: 0.992.

Take `C[C@H](CO)N1C[C@H](C)[C@H](CN(C)Cc2ccncc2)Oc2ccc(NC(=O)Nc3cccc4ccccc34)cc2CC1=O`: the relative growth was inactive: 1.01.

For `C[C@@H]1CCCCO[C@@H](CN(C)C(=O)c2ccccc2)[C@H](C)CN([C@H](C)CO)C(=O)c2cc(NS(=O)(=O)c3ccc(F)cc3)ccc2O1`, the relative growth was inactive: 1.

For the compound `C[C@@H]1CN([C@H](C)CO)C(=O)c2cc(NC(=O)CCCN(C)C)ccc2O[C@@H]1CN(C)S(=O)(=O)c1ccc(F)cc1`, the relative growth was inactive: 0.981.

With `CNC(=O)c1cc(S(=O)(=O)N(C)C[C@@H]2Oc3ccc(NC(=O)Nc4ccc(F)cc4)cc3CC(=O)N([C@@H](C)CO)C[C@@H]2C)cs1`, the relative growth was inactive: 0.943.
